# Source: PubChem BioAssay (NCATS)
# Inconclusive means that the source gave no clear call. Such entries were picked first, then a sample of the others. For some of these results: A potency beside an inconclusive call is a rough fit, not a confirmed value. Active and inactive are the calls of the source. Calls follow the shape of the dose curve; as a rule, active = well fitted curve in the direction sought with a large enough effect; inconclusive = small, poorly fitted or top-dose-only effect, or another doubt; inactive = no such curve, though single readings can be large; an effect the other way counts as inactive or inconclusive.
# Legend:
# [1] = OV-KATE Cancer Cell Toxicity qHTS against the NCATS CANVASS Library (AID 1347345); also: potency is read from the fitted curve at half-maximal effect
# In short: (§1)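 Cells were seeded at 1000 per well, allowed 4 h at 37 degrees C/5% CO2, then pin-treated with an 11-point compound series. After 72 h, viability was read as CellTiter-Glo luminescence following 15min at room temperature.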
# [2] = HPAF-II Cancer Cell Toxicity qHTS against the NCATS CANVASS Library (AID 1347346); also: potency is read from the fitted curve at half-maximal effect; nearly all actives have a fitted effect of over 55% in size
# In short: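 First, HPAF-II cells are plated (1000 cells/well) and held 4 h at 37 degrees C. Next, compounds are pin-transferred as an 11-point series. After 72 h, CellTiter-Glo is added and luminescence measured.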
# [3] = UWB1.289 Cancer Cell Toxicity qHTS against the NCATS CANVASS Library (AID 1347347); also: potency is read from the fitted curve at half-maximal effect; nearly all actives have a fitted effect of over 60% in size
# In short: as §1
# [4] = U-118MG Cancer Cell Toxicity qHTS against the NCATS CANVASS Library (AID 1347351); also: potency is read from the fitted curve at half-maximal effect
# In short: as §1
# [5] = COV-362 Cancer Cell Toxicity qHTS against the NCATS CANVASS Library (AID 1347352); also: potency is read from the fitted curve at half-maximal effect
# In short: (§2)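 First, 1000 cells go into each well and rest for 4 hours. Next, an 11-point dilution range is pinned in. Plates then incubate 72 hours before CellTiter-Glo addition and luminescence reading.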
# [6] = UWB1.289-WTBRCA1 Cancer Cell Toxicity qHTS against the NCATS CANVASS Library (AID 1347354); also: potency is read from the fitted curve at half-maximal effect
# In short: as §2
# [7] = HEK-293 Cancer Cell Toxicity qHTS against the NCATS CANVASS Library (AID 1347355); also: potency is read from the fitted curve at half-maximal effect; nearly all actives have a fitted effect of over 65% in size
# In short: as §2
# [8] = qHTS for Hypoxia signaling pathway (HIF-1) antagonists against the NCATS CANVASS Library (AID 1347374); also: potency is read from the fitted curve at half-maximal effect; nearly all actives have a fitted effect of over 60% in size
# In short: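 Antagonism scored as loss of CoCl2-driven (60 uM stock added) HRE beta-lactamase signal, read by CCF4 FRET at 460/530 nm. Compounds were tested in an 11-point series on ME-180 reporter cells for 17 hrs at 37C, with parallel CellTiter-Glo cytotoxicity.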
# [9] = DH5-alpha competent E. coli microbial cell viability qHTS against the NCATS CANVASS Library (AID 1347377); conditions: viability signal change, negative = cytotoxic: at 46.1 µM (top of the series)
# In short: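 Bacteria were dispensed at 0.2 OD, then compounds were pin-transferred. Plates were incubated overnight at 37C, after which BacTiter-Glo was added and luminescence measured 20 min later.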
# [10] = qHTS for H2AX Agonists against the NCATS CANVASS Library (AID 1347378);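 also: phospho-H2AX S139 level in CHO-K1 lysates by TR-FRET emission ratio; potency is read from the fitted curve at half-maximal effect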
# In short: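 CHO-K1, 1000 cells/well, o/n 37C; cpd several conc, 3 hr 37C, 0.76% DMSO; lyse 30 min RT; cryptate anti-pH2AX(S139) + d2 anti-H2AX, 24 hr RT; HTRF 665/620.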
# [11] = qHTS for Inflammasome Signaling Inhibitors: IL-1-beta AlphaLISA screen against the NCATS CANVASS Library (AID 1347379)
# In short: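 Secreted IL-1B from human THP-1 cells quantified by AlphaLISA 16 hr after compound addition (final up to 57.5 uM). A 1 hr compound pretreatment preceded inflammasome activation with 250 ng/mL LPS plus 1.25 mM ATP (final).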
# [12] = qHTS for Antimalaria activity screened against the NCATS CANVASS Library (AID 1347380); also: nearly all actives have a fitted effect of over 40% in size; also: potency is read from the fitted curve at half-maximal effect
# In short: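 Compounds are titrated over 11 concentrations onto Dd2 parasite cultures (0.3% parasitemia, 2.5% hematocrit). Growth over 72 h at 37C in low oxygen is measured as SYBR Green DNA fluorescence after lysis.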
# [13] = qHTS for inhibitors of ER calcium dysfunction: SERCaMP assay screened against the NCATS CANVASS Library (AID 1347393); conditions: SH-SY5Y GLuc-SERCaMP (Gaussia luciferase released on ER calcium loss) secretion, thapsigargin, luminescence; series mostly up to 76.6 µM;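 also: lower secreted reporter signal means inhibitor of ER calcium depletion; nearly all actives have a fitted effect of over 40% in size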
# In short: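 Thapsigargin-induced ER calcium depletion drives GLuc-SERCaMP secretion from SH-SY5Y cells; compounds given 16 h beforehand were scored by lowered coelenterazine luminescence after 4 h challenge.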
# [14] = Vero-766 cells viability qHTS against the NCATS CANVASS Library: Counterscreen for Zika virus inhibition assay (AID 1347394); conditions: Vero 766 viability, CellTiter-Glo luminescence, 72 h; activity change, negative = cytotoxic: at 46.1 µM (top of the series); also: potency is read from the fitted curve at half-maximal effect; nearly all actives have a fitted effect of over 60% in size
# In short: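 Vero 766, no virus; 1000 cells/well; o/n attach; cpd 11-pt; 72 h, 37C, 5% CO2; CTG luminescence; cell-free media wells = 100% inhibition.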
# [15] = Viability qHTS for inhibitors of the SERCaMP assay screened against the NCATS CANVASS Library (AID 1347400); also: potency is read from the fitted curve at half-maximal effect; nearly all actives have a fitted effect of over 70% in size
# In short: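 Seed SH-SY5Y-GLuc SERCaMP MJH297 cells at 1000 per well, incubate 4 h, add compounds across an 11-point range, incubate 48 h at 37C, then add CellTiter-Glo and read luminescence.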
# [16] = OV-SAHO Cancer Cell Toxicity qHTS against the NCATS CANVASS Library (AID 1347348); conditions: OV-SAHO viability, CellTiter-Glo luminescence, 72 h; series mostly up to 38.3 µM; also: potency is read from the fitted curve at half-maximal effect; nearly all actives have a fitted effect of over 55% in size
# In short: as §1
# [17] = Panc-1005 Cancer Cell Toxicity qHTS against the NCATS CANVASS Library (AID 1347349); also: potency is read from the fitted curve at half-maximal effect; nearly all actives have a fitted effect of over 60% in size
# In short: as §1
# [18] = A2780 Cisplatin Sensitive Ovarian Cancer Cell Toxicity qHTS against the NCATS CANVASS Library (AID 1347353)
# In short: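 Cells are plated at 750 per well and rest for 4 hours. Compounds are added across eleven concentrations, and incubated 72 hours before ATP is quantified by luminescence.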
# [19] = KB-8-5-11 Cancer Cell Toxicity qHTS against the NCATS CANVASS Library (AID 1347364); conditions: activity change, negative = toxicity: at 46.1 µM (top of the series); also: potency is read from the fitted curve at half-maximal effect; nearly all actives have a fitted effect of over 75% in size
# In short: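 Terse: KB-8-5-11, 500 cells/well, 72 hr, 37C/5% CO2, 11-pt titration, CellTiter-Glo readout; confirmatory runs ± 1uM tariquidar in medium.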
# [20] = target: Nuclear receptor subfamily 1 group I member 3 (Homo sapiens) (UniProt Q14994); assay: qHTS for Constitutive Androstane Receptor (CAR) Agonist screened against the NCATS CANVASS Library (AID 1347373);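 also: every well also contained 1.5 µM PK11195 alongside the test compound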
# In short: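 Cells were plated and allowed to attach for 4hr, then dosed with compound in an 11-point series alongside 1.5uM PK11195. After 24hr at 37C, viability was measured fluorometrically and CAR-driven CYP2B6 reporter luminescence was recorded.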
# [21] = HEK293 18hr Apoptosis Induction qHTS against the NCATS CANVASS Library (AID 1347357); also: potency is read from the fitted curve at half-maximal effect
# In short: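 Cells seeded at 500/well in DMEM + 10% FBS. Compounds pinned, 11 concentrations. 18 h, 37 degrees C/5% CO2. Caspase-Glo 3/7 added, 15 min RT dark, luminescence read.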
# [22] = HEK293 24hr Apoptosis Induction qHTS against the NCATS CANVASS Library (AID 1347359); also: potency is read from the fitted curve at half-maximal effect
# In short: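 Caspase-3/7 activation measured as luminescence from the DEVD-based Caspase-Glo reagent, 15 min at room temperature, following 24-hour compound treatment of HEK293 cells.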
# [23] = HEK293 12hr Apoptosis Induction qHTS against the NCATS CANVASS Library (AID 1347361); also: potency is read from the fitted curve at half-maximal effect
# In short: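 Cells are seeded, dosed with an 11-point compound series and incubated 12 hours. Caspase-3/7 activity is detected by luminescent DEVD-substrate reagent after 15 minutes at room temperature.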
# [24] = KB-3-1 Cancer Cell Toxicity qHTS against the NCATS CANVASS Library (AID 1347366); also: potency is read from the fitted curve at half-maximal effect; nearly all actives have a fitted effect of over 75% in size
# In short: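 Luminescence from CellTiter-Glo (10 min, room temperature) measured KB-3-1 viability after 72 hr compound exposure at 37C. Cells were seeded at 500/well and tested in an 11-point series.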
# [25] = qHTS for ATAD5 Antagonist screened against the NCATS CANVASS Library (AID 1347370); also: potency is read from the fitted curve at half-maximal effect; nearly all actives have a fitted effect of over 65% in size
# In short: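 Compounds (11-point) co-dosed with 10 µM 5-FUrd for 16 h at 37 °C onto HEK293T-ATAD5 luciferase reporter cells. Viability measured by CellTiter-Fluor fluorescence, then ATAD5 reporter signal by luminescence.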
# [26] = qHTS for Activators of p53 Stress Response Pathway screened against the NCATS CANVASS Library (AID 1347388)
# In short: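 Beta-lactamase reporter driven by p53 response elements in HCT-116 cells, read as the 460 nm/530 nm emission ratio after CCF4 loading, following 16 h of exposure to an 11-point series. Cell viability was measured in the same wells by CellTiter-Glo luminescence.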
# Tags tell the direction and shape of the fitted curve.
# Sequence of UniProt Q14994 (Q14994 whole entry, looked up): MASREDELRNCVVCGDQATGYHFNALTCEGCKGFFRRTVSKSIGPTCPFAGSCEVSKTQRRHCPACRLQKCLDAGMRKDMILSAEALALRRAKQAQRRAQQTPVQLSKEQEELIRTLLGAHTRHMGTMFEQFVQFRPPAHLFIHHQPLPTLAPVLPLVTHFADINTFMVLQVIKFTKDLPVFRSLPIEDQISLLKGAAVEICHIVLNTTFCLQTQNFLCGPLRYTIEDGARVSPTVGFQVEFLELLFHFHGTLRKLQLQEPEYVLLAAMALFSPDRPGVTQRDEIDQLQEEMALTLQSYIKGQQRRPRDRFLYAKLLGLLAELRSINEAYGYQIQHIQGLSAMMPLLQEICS
compound,measurement,setting,value
C[C@@H]1CC[C@]2(C(=O)O)CC[C@]3(C)C(=C2[C@H]1C)CC[C@@H]1[C@@]2(C)CC[C@H](O)C(C)(C)[C@@H]2CC[C@]13C,Potency,[1],"inconclusive: 26.5 µM [cytotoxic, single point]"
same,Potency,[2],"inconclusive: 23.7 µM [cytotoxic, single point]"
same,Potency,[3],"inconclusive: 13.3 µM [cytotoxic, partial curve]"
same,Potency,[4],"inconclusive: 23.7 µM [cytotoxic, single point]"
same,Potency,[5],"inconclusive: 29.8 µM [cytotoxic, single point]"
same,Potency,[6],"inconclusive: 29.8 µM [cytotoxic, single point]"
same,Potency,[7],"inconclusive: 37.2 µM [cytotoxic, single point]"
same,Potency,[8],"inconclusive: 29.8 µM [inhibitor, single point]"
same,Potency,[9],inactive
same,Potency,[10],active: 34.4 µM
same,Potency,[11],"inconclusive: 43.2 µM [inhibitor, single point]"
same,Potency,[12],"inconclusive: 0.0188 µM [cytotoxic, full curve, poor fit]"
same,Potency,[13],inactive
same,Potency,[14],active: 18.6 µM
same,Potency,[15],"inconclusive: 67.8 µM [cytotoxic, single point]"
CC(=O)O[C@H]1c2ccccc2-c2c3c(cc4c2[C@@H]1N(C(C)=O)CC4)OCO3,Potency,[2],"inconclusive: 14.9 µM [cytotoxic, partial curve]"
same,Potency,[3],"inconclusive: 11.8 µM [cytotoxic, partial curve]"
same,Potency,[16],"inconclusive: 16.7 µM [cytotoxic, partial curve]"
same,Potency,[17],"inconclusive: 13.3 µM [cytotoxic, partial curve]"
same,Potency,[18],"inconclusive: 10.5 µM [cytotoxic, partial curve]"
same,Potency,[6],inactive
same,Potency,[7],"inconclusive: 33.2 µM [cytotoxic, single point]"
same,Potency,[19],"inconclusive: 26.4 µM [cytotoxic, partial curve, poor fit]"
same,Potency,[20],inactive
same,Potency,[12],inactive
same,Potency,[14],"inconclusive: 26.3 µM [cytotoxic, partial curve, poor fit]"
same,Potency,[15],"inconclusive: 48 µM [cytotoxic, partial curve, poor fit]"
CO[C@@H]1[C@H](O)[C@@H](C)O[C@@H](OC[C@@H]2C(C)OC(=O)/C=C/[C@H](C)C(O[C@@H]3O[C@H](C)CC4(OC(=O)O[C@@H]4C)C3O)[C@@H](C)CC(C)C(=O)/C=C/[C@H]3OC23)[C@@H]1OC (stereo not given in full),Potency,[1],"inconclusive: 29.8 µM [cytotoxic, partial curve, poor fit]"
same,Potency,[3],active: 18.8 µM
same,Potency,[16],"inconclusive: 11.8 µM [cytotoxic, partial curve]"
same,Potency,[17],"inconclusive: 16.8 µM [cytotoxic, single point]"
same,Potency,[5],"inconclusive: 18.8 µM [cytotoxic, partial curve]"
same,Potency,[6],"inconclusive: 29.8 µM [cytotoxic, single point]"
same,Potency,[21],"inconclusive: 29.6 µM [activator, single point]"
same,Potency,[22],"inconclusive: 33.2 µM [activator, single point]"
same,Potency,[23],"inconclusive: 33.2 µM [activator, partial curve, poor fit]"
same,Potency,[24],"inconclusive: 37.2 µM [cytotoxic, single point]"
same,Potency,[25],active: 16.6 µM
same,Potency,[12],active: 14.9 µM
same,Potency,[26],inactive
